Results as given in the supplement of paper PMC10126150.
Sequences with one replicate were seen in a single cluster, so their values are uncertain.

Tested on: ATP
Assay: switch fluorescence ratio, 500 uM ATP over buffer (Cy3 cluster intensity, sum of 5 cycles each) (fold (ratio)); higher = stronger signal-on switching upon ATP binding; sequences stand for … in TCGTCGGCAGCGTCAGATGTGTATAAGAGACAGTTTTTTTTTTTTTTTTTTTTTTTTT…TC
Conditions: aptamer strand: ATP DNA aptamer (quencher-CACCTGGGGGAGTATTGCGGAGGAAGG + anchor), 100 nM annealed; ATP concentration: 500 uM; one replicate
Procedure, shortened: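 Values give the fluorescence ratio for each switch-domain sequence, averaged from per-cluster ratios of summed target-cycle to summed buffer-cycle Cy3 intensity. The Cy3-labelled switching-strand clusters sat on a modified Illumina MiSeq flow-cell, were annealed to 100 nM quencher-labelled ATP aptamer, and were imaged in selection buffer, then after 15 min with 500 uM ATP at 22 °C. Five cycles ran with NaOH stripping and re-annealing between them, and clusters outside 100-1000 RFU were excluded.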
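Also: ATP exposure 15 min at 22 °C before imaging.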

Q: Which switch fluorescence ratio does the source give for TCTCGCGGTG here?
A: 1.04

Q: With TCTCGCTCCT as the sequence, how does the switch fluorescence ratio read?
A: 1.11

Q: For TCTCGCTGC, which switch fluorescence ratio is on record?
A: 2.42

Q: TCTCGGTACG was tested. Which switch fluorescence ratio did it give?
A: 1.11

Q: TCTCGTAAAC was tested. Which switch fluorescence ratio did it give?
A: 2.1

Q: For TCTCGTGCGG, which switch fluorescence ratio is on record?
A: 1.02

Q: How did the switch fluorescence ratio turn out when TCTCTAGAGC was run?
A: 0.999

Q: With TCTCTCAAAT as the sequence, how does the switch fluorescence ratio read?
A: 1.03

Q: TCTCTGAGTG was tested. Which switch fluorescence ratio did it give?
A: 0.983

Q: With TCTCTTCGGT as the sequence, how does the switch fluorescence ratio read?
A: 0.975

Q: How did the switch fluorescence ratio turn out when TCTCTTGGGG was run?
A: 0.942

Q: Which switch fluorescence ratio does the source give for TCTCTTTACA here?
A: 0.97

Q: For TCTGAACCGC, which switch fluorescence ratio is on record?
A: 1.41

Q: For TCTGAAGGTA, which switch fluorescence ratio is on record?
A: 1.04

Q: Which switch fluorescence ratio does the source give for TCTGAATAGA here?
A: 0.99

Q: Which switch fluorescence ratio does the source give for TCTGAATTCT here?
A: 1.01

Q: How did the switch fluorescence ratio turn out when TCTGACAGGG was run?
A: 1.01

Q: With TCTGACCTAA as the sequence, how does the switch fluorescence ratio read?
A: 1.13

Q: TCTGACGCGG was tested. Which switch fluorescence ratio did it give?
A: 1.31

Q: Which switch fluorescence ratio does the source give for TCTGAGGCGG here?
A: 1.09

Q: Which switch fluorescence ratio does the source give for TCTGATGAGT here?
A: 0.99

Q: TCTGCAAGGT was tested. Which switch fluorescence ratio did it give?
A: 1.24

Q: How did the switch fluorescence ratio turn out when TCTGCAGCCC was run?
A: 2.17

Q: TCTGCATCAC was tested. Which switch fluorescence ratio did it give?
A: 3.36

Q: TCTGCCAAAA was tested. Which switch fluorescence ratio did it give?
A: 1.29

Q: With TCTGCCAGG as the sequence, how does the switch fluorescence ratio read?
A: 1.42

Q: For TCTGCGAATT, which switch fluorescence ratio is on record?
A: 1

Q: How did the switch fluorescence ratio turn out when TCTGCGAGGG was run?
A: 1.2

Q: TCTGCGGGTT was tested. Which switch fluorescence ratio did it give?
A: 0.979

Q: How did the switch fluorescence ratio turn out when TCTGGAGGAT was run?
A: 0.992

Q: Which switch fluorescence ratio does the source give for TCTGGAGTAA here?
A: 4.87

Q: TCTGGGCCGT was tested. Which switch fluorescence ratio did it give?
A: 1

Q: For TCTGGGCTTC, which switch fluorescence ratio is on record?
A: 1.03

Q: With TCTGGGGCAG as the sequence, how does the switch fluorescence ratio read?
A: 0.954

Q: TCTGGGTACG was tested. Which switch fluorescence ratio did it give?
A: 1.01

Q: TCTGGTAG was tested. Which switch fluorescence ratio did it give?
A: 0.987

Q: How did the switch fluorescence ratio turn out when TCTGGTAGAA was run?
A: 1

Q: Which switch fluorescence ratio does the source give for TCTGGTCCCC here?
A: 0.995

Q: TCTGGTCCCT was tested. Which switch fluorescence ratio did it give?
A: 1.01

Q: How did the switch fluorescence ratio turn out when TCTGGTCGAG was run?
A: 1.02

Q: How did the switch fluorescence ratio turn out when TCTGGTGGC was run?
A: 0.966

Q: For TCTGTAACTA, which switch fluorescence ratio is on record?
A: 0.993

Q: With TCTGTAGACT as the sequence, how does the switch fluorescence ratio read?
A: 1.06

Q: TCTGTCTA was tested. Which switch fluorescence ratio did it give?
A: 0.99

Q: How did the switch fluorescence ratio turn out when TCTGTCTTGT was run?
A: 1

Q: With TCTGTCTTT as the sequence, how does the switch fluorescence ratio read?
A: 1.01

Q: TCTGTGGCAT was tested. Which switch fluorescence ratio did it give?
A: 1.11

Q: How did the switch fluorescence ratio turn out when TCTGTGGGTA was run?
A: 0.963

Q: How did the switch fluorescence ratio turn out when TCTGTGTCCA was run?
A: 1.04

Q: With TCTGTTCGTC as the sequence, how does the switch fluorescence ratio read?
A: 1.01

Q: Which switch fluorescence ratio does the source give for TCTTACATGG here?
A: 1.08

Q: How did the switch fluorescence ratio turn out when TCTTAGCTAA was run?
A: 1.04

Q: With TCTTAGCTCA as the sequence, how does the switch fluorescence ratio read?
A: 1.11

Q: Which switch fluorescence ratio does the source give for TCTTATCTA here?
A: 0.985

Q: TCTTATGGTC was tested. Which switch fluorescence ratio did it give?
A: 1.03

Q: For TCTTCAAG, which switch fluorescence ratio is on record?
A: 1.02

Q: With TCTTCAGATT as the sequence, how does the switch fluorescence ratio read?
A: 0.966

Q: With TCTTCAGCAC as the sequence, how does the switch fluorescence ratio read?
A: 2.26

Q: How did the switch fluorescence ratio turn out when TCTTCAGCGA was run?
A: 2.38

Q: Which switch fluorescence ratio does the source give for TCTTCATAAT here?
A: 0.993

Q: With TCTTCCCAAG as the sequence, how does the switch fluorescence ratio read?
A: 1.07

Q: For TCTTCCCGCG, which switch fluorescence ratio is on record?
A: 1.21

Q: For TCTTCGTGGT, which switch fluorescence ratio is on record?
A: 1.05

Q: For TCTTCTATAG, which switch fluorescence ratio is on record?
A: 1.01

Q: How did the switch fluorescence ratio turn out when TCTTCTGTTA was run?
A: 1.03

Q: How did the switch fluorescence ratio turn out when TCTTGAACAC was run?
A: 1.04

Q: How did the switch fluorescence ratio turn out when TCTTGAACTA was run?
A: 0.971

Q: How did the switch fluorescence ratio turn out when TCTTGAGCCG was run?
A: 1.08

Q: With TCTTGATGTC as the sequence, how does the switch fluorescence ratio read?
A: 0.848

Q: With TCTTGCACTT as the sequence, how does the switch fluorescence ratio read?
A: 1.05

Q: Which switch fluorescence ratio does the source give for TCTTGCCTTT here?
A: 0.97

Q: Which switch fluorescence ratio does the source give for TCTTGGGTCG here?
A: 0.984

Q: With TCTTGGTAG as the sequence, how does the switch fluorescence ratio read?
A: 0.999

Q: How did the switch fluorescence ratio turn out when TCTTGGTTAT was run?
A: 0.967

Q: Which switch fluorescence ratio does the source give for TCTTGGTTT here?
A: 1.04

Q: TCTTGTGGCG was tested. Which switch fluorescence ratio did it give?
A: 1.01

Q: Which switch fluorescence ratio does the source give for TCTTTATAGA here?
A: 0.951

Q: For TCTTTATTGA, which switch fluorescence ratio is on record?
A: 1.02

Q: For TCTTTGAACT, which switch fluorescence ratio is on record?
A: 0.985

Q: With TCTTTTACCG as the sequence, how does the switch fluorescence ratio read?
A: 0.971

Q: TCTTTTCTAG was tested. Which switch fluorescence ratio did it give?
A: 1

Q: For TCTTTTCTGC, which switch fluorescence ratio is on record?
A: 1.05

Q: How did the switch fluorescence ratio turn out when TCTTTTGGAC was run?
A: 1

Q: With TCTTTTGTAC as the sequence, how does the switch fluorescence ratio read?
A: 1.19

Q: TCTTTTTTGT was tested. Which switch fluorescence ratio did it give?
A: 0.998

Q: With TGAAAAAACT as the sequence, how does the switch fluorescence ratio read?
A: 1.02

Q: For TGAAAAACAG, which switch fluorescence ratio is on record?
A: 1.06

Q: Which switch fluorescence ratio does the source give for TGAAAAGAAA here?
A: 0.937

Q: How did the switch fluorescence ratio turn out when TGAAAAGCTT was run?
A: 0.98

Q: With TGAAAATGTT as the sequence, how does the switch fluorescence ratio read?
A: 0.998

Q: For TGAAACACTA, which switch fluorescence ratio is on record?
A: 1.03

Q: For TGAAACCATC, which switch fluorescence ratio is on record?
A: 1.1

Q: With TGAAAGATAT as the sequence, how does the switch fluorescence ratio read?
A: 1.18

Q: TGAAAGCGAC was tested. Which switch fluorescence ratio did it give?
A: 1.91

Q: How did the switch fluorescence ratio turn out when TGAAAGGAC was run?
A: 1.03

Q: For TGAAAGGAGC, which switch fluorescence ratio is on record?
A: 1.06

Q: TGAAAGTATA was tested. Which switch fluorescence ratio did it give?
A: 1.05

Q: With TGAAATGCCT as the sequence, how does the switch fluorescence ratio read?
A: 1.03

Q: Which switch fluorescence ratio does the source give for TGAAATTGAC here?
A: 1.12

Q: With TGAACACACT as the sequence, how does the switch fluorescence ratio read?
A: 1.19

Q: With TGAACCTAGC as the sequence, how does the switch fluorescence ratio read?
A: 1.25

Q: With TGAACGAGGT as the sequence, how does the switch fluorescence ratio read?
A: 1.01

Q: With TGAACGGAGC as the sequence, how does the switch fluorescence ratio read?
A: 1.06

Q: With TGAACTCGTG as the sequence, how does the switch fluorescence ratio read?
A: 0.997

Q: For TGAACTGGGC, which switch fluorescence ratio is on record?
A: 1.21

Q: For TGAACTTACT, which switch fluorescence ratio is on record?
A: 1.12

Q: With TGAAGAAGGA as the sequence, how does the switch fluorescence ratio read?
A: 1.04

Q: With TGAAGCGGTG as the sequence, how does the switch fluorescence ratio read?
A: 1.05

Q: With TGAAGCGTGG as the sequence, how does the switch fluorescence ratio read?
A: 0.989

Q: For TGAAGGACGA, which switch fluorescence ratio is on record?
A: 0.969

Q: For TGAAGGTGCA, which switch fluorescence ratio is on record?
A: 0.961

Q: TGAAGGTTAT was tested. Which switch fluorescence ratio did it give?
A: 0.973

Q: TGAAGTAACC was tested. Which switch fluorescence ratio did it give?
A: 1.08

Q: Which switch fluorescence ratio does the source give for TGAAGTCATC here?
A: 1.03

Q: TGAATAGGTG was tested. Which switch fluorescence ratio did it give?
A: 1.18

Q: With TGAATCATTC as the sequence, how does the switch fluorescence ratio read?
A: 1.01

Q: With TGAATGACTA as the sequence, how does the switch fluorescence ratio read?
A: 0.977

Q: For TGAATGATGT, which switch fluorescence ratio is on record?
A: 0.946

Q: Which switch fluorescence ratio does the source give for TGAATGCTGT here?
A: 1.04

Q: How did the switch fluorescence ratio turn out when TGAATGGTCA was run?
A: 1.02

Q: Which switch fluorescence ratio does the source give for TGAATTCCGG here?
A: 0.996

Q: How did the switch fluorescence ratio turn out when TGAATTTTCT was run?
A: 0.987

Q: For TGACAAAGGA, which switch fluorescence ratio is on record?
A: 0.903

Q: With TGACACATTT as the sequence, how does the switch fluorescence ratio read?
A: 0.985

Q: For TGACACCTGT, which switch fluorescence ratio is on record?
A: 1.02

Q: How did the switch fluorescence ratio turn out when TGACACGATG was run?
A: 1.02

Q: How did the switch fluorescence ratio turn out when TGACACTTGC was run?
A: 1.06

Q: TGACAGAGGC was tested. Which switch fluorescence ratio did it give?
A: 1.01

Q: TGACAGCGCG was tested. Which switch fluorescence ratio did it give?
A: 1

Q: For TGACAGCGTC, which switch fluorescence ratio is on record?
A: 0.967

Q: How did the switch fluorescence ratio turn out when TGACAGCTAG was run?
A: 1.06

Q: Which switch fluorescence ratio does the source give for TGACAGTCTT here?
A: 1.01

Q: TGACATGCAT was tested. Which switch fluorescence ratio did it give?
A: 0.983

Q: For TGACATTCTA, which switch fluorescence ratio is on record?
A: 0.98

Q: How did the switch fluorescence ratio turn out when TGACCACATT was run?
A: 1.07

Q: TGACCGGGAT was tested. Which switch fluorescence ratio did it give?
A: 1.07

Q: How did the switch fluorescence ratio turn out when TGACGAAAT was run?
A: 1.41

Q: How did the switch fluorescence ratio turn out when TGACGAATGG was run?
A: 1.02

Q: How did the switch fluorescence ratio turn out when TGACGAGCGT was run?
A: 2.98

Q: TGACGGGCGT was tested. Which switch fluorescence ratio did it give?
A: 0.984

Q: With TGACGGGTTG as the sequence, how does the switch fluorescence ratio read?
A: 1.05

Q: Which switch fluorescence ratio does the source give for TGACGGTAAT here?
A: 1.07

Q: How did the switch fluorescence ratio turn out when TGACGGTATG was run?
A: 0.983

Q: TGACGGTTTC was tested. Which switch fluorescence ratio did it give?
A: 0.976

Q: For TGACGTGCA, which switch fluorescence ratio is on record?
A: 1.02

Q: With TGACGTGTGG as the sequence, how does the switch fluorescence ratio read?
A: 0.967

Q: Which switch fluorescence ratio does the source give for TGACTACCGA here?
A: 1.08

Q: Which switch fluorescence ratio does the source give for TGACTATCT here?
A: 0.999

Q: How did the switch fluorescence ratio turn out when TGACTCGCTC was run?
A: 1.09

Q: How did the switch fluorescence ratio turn out when TGACTCGTGC was run?
A: 1.05

Q: Which switch fluorescence ratio does the source give for TGACTGTACG here?
A: 1.08

Q: For TGACTTAAGG, which switch fluorescence ratio is on record?
A: 1.02

Q: Which switch fluorescence ratio does the source give for TGAGAAAAG here?
A: 1.01
